In PubChem BioAssay AID588795 (National Center for Advancing Translational Sciences (NCATS), 2011):
The campaign covered roughly 390,000 compounds. About 1,400 (0.36%) were called active. Inconclusive means that the source gave no clear call. Such entries were picked first, then a sample of the others. Calls follow the shape of the dose curve; as a rule, active = well fitted inhibition curve with a large enough effect; inconclusive = small, poorly fitted or top-dose-only effect; inactive = no such curve, though single readings can be large or run the other way. Potencies beside an inconclusive call are fits to weak or partial responses and may not hold up.

target: Flap endonuclease 1 (Homo sapiens) (UniProt P39748); test: qHTS Assay for the Inhibitors of Human Flap endonuclease 1 (FEN1).; also: nearly all actives have a fitted effect of over 65% in size; conditions: Recombinant FEN1 flap cleavage, fluorescence, 15 min; series mostly up to 114 µM
Sequence of UniProt P39748 (P39748 whole entry, looked up): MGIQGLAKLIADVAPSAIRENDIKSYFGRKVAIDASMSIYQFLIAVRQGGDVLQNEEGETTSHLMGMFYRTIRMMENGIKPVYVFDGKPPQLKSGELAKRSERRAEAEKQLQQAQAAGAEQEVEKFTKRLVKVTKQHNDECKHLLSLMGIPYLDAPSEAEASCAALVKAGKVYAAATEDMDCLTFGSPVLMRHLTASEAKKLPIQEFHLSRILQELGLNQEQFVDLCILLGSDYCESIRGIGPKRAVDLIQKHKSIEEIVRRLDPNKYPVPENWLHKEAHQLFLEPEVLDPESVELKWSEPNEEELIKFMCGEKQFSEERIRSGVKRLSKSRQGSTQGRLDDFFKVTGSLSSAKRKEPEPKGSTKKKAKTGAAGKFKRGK
Outline: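 Read-out was taken twice, immediately and after 15 min, following addition of 50 nM substrate to 10 nM FEN1 that had sat with test compound for 15 min at room temperature. Curves came from a four-parameter Hill model.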
Potency is read from the fitted curve at half-maximal effect; tags tell the direction and shape of the fitted curve.

O=c1c2c([N+](=O)[O-])cc([N+](=O)[O-])cc2sn1Cc1ccccc1 was tested. Which Potency did it give?
Its Potency is inconclusive: 89.1 µM [inhibitor, single point].

How did the Potency turn out when COc1ccc(/C=C/C(=O)c2ccc([N+](=O)[O-])o2)cc1OC was run?
The Potency was inconclusive: 39.8 µM [inhibitor, single point].

CC(=O)Nc1cccc(Oc2ncnc3scc(-c4ccccc4)c23)c1 was tested. Which Potency did it give?
The Potency was “inactive”.

How did the Potency turn out when COc1ccc(C2/C=C\CC(NC(=O)OCC3c4ccccc4-c4ccccc43)CC(=O)N2Cc2ccccc2F)cc1 (configuration not stated) was run?
The Potency was inconclusive: 89.1 µM [inhibitor, partial curve, poor fit].

Cc1ccc2c(=O)cc(C(=O)Nc3ccc(S(=O)(=O)Nc4onc(C)c4C)cc3)oc2c1 was tested. Which Potency did it give?
Its Potency is inconclusive: 89.1 µM [inhibitor, partial curve, poor fit].

With COc1ccc(OC)c(NC(=O)CCc2c(C)nc3c(-c4ccccc4)c(C)nn3c2C)c1 as the compound, how does the Potency read?
The Potency was inconclusive: 3.98 µM [inhibitor, partial curve, poor fit].

CC(=O)Oc1ccc(C(=O)Nc2cccc(C(=O)c3cccc(NC(=O)c4ccc(OC(C)=O)cc4)c3)c2)cc1 was tested. Which Potency did it give?
Its Potency is inconclusive: 11.2 µM [inhibitor, partial curve, poor fit].

For COc1ccc(C2(c3ccc(OC)cc3)NC(=O)N(CC(=O)NC(C)C)C2=O)cc1, which Potency is on record?
The Potency was “inactive”.

How did the Potency turn out when Cc1cc(C)n(-c2nc(NCCCN(C)C)c3c4c(sc3n2)CCCC4)n1 was run?
The Potency was inconclusive: 70.8 µM [inhibitor, partial curve].

O=c1c2ccccc2oc2cc(OCc3cccc(F)c3)cc(O)c12 was tested. Which Potency did it give?
The Potency was “inactive”.

COc1ccc(/C=C2\SC(=N)N(c3nccs3)C2=O)cc1OC was tested. Which Potency did it give?
The Potency was active: 79.4 µM.

For CC(c1ccccc1)N1C(=O)c2ccc(C(=O)Nc3ccc(Br)cc3C(=O)O)cc2C1=O (configuration not stated), which Potency is on record?
The Potency was “inactive”.

How did the Potency turn out when N#CCC(=O)Nc1ccc(C(=O)OCC(=O)Nc2ccccc2Sc2ccccc2)cc1 was run?
The Potency was inconclusive: 89.1 µM [inhibitor, partial curve, poor fit].

Which Potency does the source give for Cc1ccc(Nc2cc(-c3ccccc3)nc(C)n2)cc1 here?
Its Potency is inconclusive: 44.7 µM [inhibitor, partial curve, poor fit].

For CCN1CCN(c2cc(N3CCN(C(=O)c4ccco4)CC3)c3c4c(onc24)-c2ccccc2C3=O)CC1, which Potency is on record?
Its Potency is inconclusive: 56.2 µM [inhibitor, partial curve].

Which Potency does the source give for Cc1cc2oc(C(=O)Nc3ccc(S(=O)(=O)Nc4onc(C)c4C)cc3)cc(=O)c2cc1C here?
The Potency was inconclusive: 44.7 µM [inhibitor, partial curve, poor fit].

With COC(=O)c1cccc(-n2c(C)cc(C=O)c2C)c1 as the compound, how does the Potency read?
The Potency was “inactive”.
